# Measured values published in PubChem BioAssay AID2147 (National Center for Advancing Translational Sciences (NCATS), 2009).
# The whole screen tested about 230,000 compounds, of which about 3,600 (1.6%) were called active. Inconclusive results, whose numbers are uncertain, are shown with a selection of clear calls. Calls follow the shape of the dose curve; as a rule, active = well fitted inhibition curve with a large enough effect (not every such curve was filed as active); inconclusive = small, poorly fitted or top-dose-only effect, or another doubt; inactive = no such curve, though single readings can be large or run the other way. Potencies of inconclusive entries are doubtful fits and often do not repeat.
# Molecular target: Lysine-specific demethylase 4E (Homo sapiens) (UniProt B2RXH2)
# Experiment: qHTS Assay for Inhibitors of Human Jumonji Domain Containing 2E (JMJD2E)
# Conditions: JMJD2E catalytic domain, FDH-coupled NADH fluorescence (FDH is formaldehyde dehydrogenase); series mostly up to 57.1 µM; activity change, negative = inhibition: at the top concentration
# Also: nearly all actives have a fitted effect of over 50% in size.
# 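For activity change, negative = inhibition in this document: 0% = wells with enzyme and -100% = buffer wells without enzyme.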
# Potency is read from the fitted curve at half-maximal effect; tags tell the direction and shape of the fitted curve.
# Chain of UniProt B2RXH2 (B2RXH2 whole entry, looked up, the tested form may be a part): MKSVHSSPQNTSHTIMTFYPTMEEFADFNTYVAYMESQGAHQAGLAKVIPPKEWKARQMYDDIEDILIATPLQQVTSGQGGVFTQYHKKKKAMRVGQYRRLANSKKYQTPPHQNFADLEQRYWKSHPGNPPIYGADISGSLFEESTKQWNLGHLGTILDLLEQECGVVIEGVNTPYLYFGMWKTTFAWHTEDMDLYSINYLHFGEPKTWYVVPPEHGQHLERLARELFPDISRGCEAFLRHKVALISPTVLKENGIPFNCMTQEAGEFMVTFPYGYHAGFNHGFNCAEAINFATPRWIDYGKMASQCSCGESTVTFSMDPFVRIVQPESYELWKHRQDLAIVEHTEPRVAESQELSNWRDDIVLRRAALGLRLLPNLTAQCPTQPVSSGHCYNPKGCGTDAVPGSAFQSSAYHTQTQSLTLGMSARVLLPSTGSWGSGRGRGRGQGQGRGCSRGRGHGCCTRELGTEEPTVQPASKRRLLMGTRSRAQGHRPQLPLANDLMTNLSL
Compound,Potency,"activity change, negative = inhibition"
Cc1ccc(S(=O)(=O)NCC(c2cccnc2)N2CCOCC2)cc1 (stereo unspecified),"inconclusive: 28.2 µM [inhibitor, single point]",–
CC1Cc2ccccc2N1C(=O)CSc1nnnn1C(C)C (stereo unspecified),–,inactive: 1.32%
O=C(c1cccs1)N1CCN(c2ncc(Br)cn2)CC1,–,inactive: -2.14%
Cn1c(SCC(=O)c2cc(Cl)c(Cl)s2)nnc1-c1ccco1,–,inactive: -4.76%
COc1ccccc1NC(=O)N1CCc2[nH]c3ccc(F)cc3c2C1,"inconclusive: 39.8 µM [inhibitor, single point]",–
NC(=O)CC(NC(=O)Cc1ccc(Br)cc1)c1ccc(NCCc2ccc(Cl)cc2)c([N+](=O)[O-])c1 (stereo unspecified),–,inactive: -2%
COC(=O)c1cccc(Nc2ncnc3sccc23)c1,"inconclusive: 28.2 µM [inhibitor, single point]",–
CCN(CC)C(=O)CSc1nc(-c2cccs2)cc(-c2cccs2)c1C#N,–,inactive: -2.4%
COc1cccc(NC(=O)C(=O)N/N=C/c2cc(C)n(-c3ccc(Cl)c(Cl)c3)c2C)c1,"inconclusive: 5.01 µM [inhibitor, single point]",–
COc1ccc2[nH]cc(CCNc3ncncc3-c3ccc(N(C)C)cc3)c2c1,"inconclusive: 31.6 µM [inhibitor, partial curve]",–
O=C(/C=C\c1ccc(-c2cccc([N+](=O)[O-])c2)o1)N1CCOCC1,active: 15.8 µM,–
Cc1ccc(S(=O)(=O)Cn2nnnc2CN(Cc2ccco2)CC2CCCO2)cc1 (stereo unspecified),–,inactive: 3.74%
COc1ccc(-c2oc3ccccc3c(=O)c2O)cc1OC,"inconclusive: 31.6 µM [inhibitor, partial curve]",–
COCCn1c(=O)[nH]c2cc(C(=O)NCCN3CCN(c4cccc(Cl)c4)CC3)ccc2c1=O,"inconclusive: 39.8 µM [inhibitor, single point]",–
COc1ccc2[nH]c(CN3CCC(CO)(CCOc4ccccc4)CC3)c(C)c2c1,"inconclusive: 31.6 µM [inhibitor, single point]",–
Cc1nn(-c2ccccc2)c(C)c1/C=N/n1c(-c2ccc(Cl)cc2)n[nH]c1=S,–,inactive: -3.87%
Cc1cc(C(=O)N/N=C/c2cc(Br)cc([N+](=O)[O-])c2O)c2ccccc2n1,active: 6.31 µM,–
COC(=O)c1c(NC(=O)c2nn(C)cc2Cl)sc2c1CCCC2,"inconclusive: 3.16 µM [inhibitor, partial curve]",–
CCC(=O)Nc1nc2c(s1)COc1ccccc1-2,"inconclusive: 39.8 µM [inhibitor, single point]",–
N=c1oc2cc(O)ccc2cc1C(=O)Nc1ccccn1,"inconclusive: 28.2 µM [inhibitor, partial curve]",–
CN(C(=O)COC(=O)c1ccc2c(c1)OCO2)C1CCS(=O)(=O)C1 (stereo unspecified),"inconclusive: 39.8 µM [inhibitor, single point]",–
Cc1cc2nnc(SC(C)C)n2c2ccccc12,"inconclusive: 25.1 µM [inhibitor, partial curve]",–
Cc1cc2cc(CN(CCN(C)C)C(=S)NCc3ccco3)c(=O)[nH]c2cc1C,"inconclusive: 25.1 µM [inhibitor, partial curve]",–
COc1ccc(Cc2nnc(N/N=C/c3ccc(Br)cc3)[nH]c2=O)cc1OC,–,inactive: 7.61%

Compound,Potency,"activity change, negative = inhibition"
CN(C(=O)COC(=O)/C=C/c1cn(-c2ccccc2)nc1-c1ccc2c(c1)OCCO2)C1CCS(=O)(=O)C1 (stereo unspecified),"inconclusive: 28.2 µM [inhibitor, partial curve]",–
CC(C)(C)c1ccc(S(=O)(=O)N2C=CC(C(F)(F)F)=NCC2)cc1,–,inactive: 0.0042%
Cn1ncc2c(N3CCN(c4ccc(Cl)c(Cl)c4)CC3)ncnc21,–,inactive: 6.99%
CCN(CC)c1ccc(C(=O)O)cc1,"inconclusive: 25.1 µM [inhibitor, single point]",–
Cc1ccc(Cl)cc1NC(=O)Nc1cccs1,–,inactive: 2.3%
COCCNC(=O)CCCn1c(=O)c2cc(OC)c(OC)cc2n(CC(=O)Nc2ccc(F)cc2)c1=O,"inconclusive: 3.98 µM [inhibitor, single point]",–
Cc1[nH]n(-c2ccc(F)cc2)c(=O)c1/C=N/c1sc2c(c1C#N)CCCC2,–,inactive: -5.58%
CCCN(CCC)C(=O)c1cc([N+](=O)[O-])cc2c1-c1ccc([N+](=O)[O-])cc1C2=C(C#N)C#N,"inconclusive: 39.8 µM [inhibitor, single point]",–
O=C1CCCC2=C1C(c1ccc(Br)cc1)c1c([nH]c(=S)[nH]c1=O)N2 (stereo unspecified),"inconclusive: 2.24 µM [inhibitor, partial curve]",–
CCOC(=O)Nc1cc2c(C)cc(=O)oc2cc1C,"inconclusive: 6.31 µM [inhibitor, full curve]",–
COc1cccc(-c2nnc3sc(-c4ccccn4)nn23)c1,–,inactive: -1.62%
Nc1c2ccccc2nc2ccccc12 (tested in a mixture with another compound),"inconclusive: 25.1 µM [inhibitor, partial curve]",–
CCCC(C(=O)NC(C)(C)C)N(CC1CCCO1)C(=O)c1snc(C(N)=O)c1N (stereo unspecified),"inconclusive: 31.6 µM [inhibitor, partial curve]",–
O=C(Cn1nnc(-c2ccc(F)cc2)n1)OCC(=O)c1ccccc1,–,inactive: -15.9%
CS(=O)(=O)N(Cc1ccccc1)c1ccc(C(=O)Nc2ccccc2Sc2ccccc2)cc1,"inconclusive: 25.1 µM [inhibitor, partial curve]",–
COc1ccc(N2C(=O)c3ccccc3NC2c2ccc(OC)c(CSc3ccccn3)c2)cc1 (stereo unspecified),"inconclusive: 31.6 µM [inhibitor, partial curve]",–
Cc1ccc(-n2nnnc2C(=Cc2ccc(N(C)C)cc2)c2nnnn2-c2ccc(C)cc2)cc1,"inconclusive: 31.6 µM [inhibitor, single point]",–
O=S(=O)(Nc1ccncc1)c1ccccc1,–,inactive: -3.59%
Cc1ccc2nc(N/N=C/c3ccccc3C#N)nc(-c3ccccc3)c2c1,"inconclusive: 25.1 µM [inhibitor, partial curve]",–
COc1ccc(NC(=O)c2cc(-c3ccco3)nc3ccccc23)cc1S(=O)(=O)N1CCOCC1,"inconclusive: 25.1 µM [inhibitor, partial curve]",–
CN(Cc1ccccc1)C(=O)COC(=O)c1ccccc1Nc1ccccc1,"inconclusive: 35.5 µM [inhibitor, single point]",–
COC(=O)c1cccc(C23CC4(C2)[C@H](CN(CC2CCCCC2)[C@@H]4c2ccccc2)C3c2ccc(C(F)(F)F)cc2)c1 (stereo partly specified),–,inactive: -26.1%
CCOC(=O)C1CCCN(C(=O)C2c3ccccc3Oc3ccccc32)C1 (stereo unspecified),"inconclusive: 39.8 µM [inhibitor, single point]",–
O=C1NC(=O)C2(COC(c3cccc([N+](=O)[O-])c3)OC2)S1 (stereo unspecified),"inconclusive: 7.08 µM [inhibitor, single point]",–

Compound,Potency,"activity change, negative = inhibition"
CSCCC(NS(=O)(=O)c1ccc(Cl)cc1)C(=O)OCc1c(Cl)cccc1Cl (stereo unspecified),–,inactive: -1.49%
S=C(Nc1cccc(Cl)c1)N1CCN(Cc2ccccc2)CC1,–,inactive: 8.62%
CCOC(=O)c1cc(-c2ccc(C)cc2)n(CCC(=O)NCCN(C)C)c1C,–,inactive: -0.338%
COCC1CCN(C(=O)c2cc(COc3ccc4ncccc4c3)on2)CC1,"inconclusive: 39.8 µM [inhibitor, single point]",–
COc1cccc(/C=N/Nc2ncnc3c2[nH]c2ccc(C)cc23)c1OC,"inconclusive: 31.6 µM [inhibitor, single point]",–
CC(=O)COc1cc(C)cc2oc(=O)c(C)c(C)c12,"inconclusive: 8.91 µM [inhibitor, partial curve]",–
O=C(CCSc1ccc(Cl)cc1)NC12CC3CC(CC(C3)C1)C2,"inconclusive: 39.8 µM [inhibitor, single point]",–
CCN(CC(=O)Nc1cc(Cl)ccc1C)C(=O)COc1ccccc1F,–,inactive: -6.51%
Cc1cccnc1Nc1nc(-c2ccc(O)c(O)c2)cs1,"inconclusive: 31.6 µM [inhibitor, single point]",–
Cc1cc(=O)oc2c3c(ccc12)OC/C3=N/N,"inconclusive: 31.6 µM [inhibitor, partial curve]",–
Cc1cc(/C=N/n2cnnc2)c(C)n1-c1ccc(OCc2ccc(Cl)cc2)cc1,"inconclusive: 39.8 µM [inhibitor, single point]",–
NC(=O)CNC(=O)[C@@H]1CC2(CC(c3ccc(Cl)cc3)=NO2)CN1C(=O)c1ccccc1 (stereo partly specified),–,inactive: -6.69%
COc1ccc(N2C(S)=C(C#N)C(=O)NC2c2ccco2)cc1 (stereo unspecified),–,inactive: 2.92%
CCOC(=O)NNc1ccc2nonc2c1[N+](=O)[O-],active: 6.31 µM,–
Cc1[nH]c2ccccc2c1/C=N/Nc1cccc(C(=O)O)c1,"inconclusive: 35.5 µM [inhibitor, single point]",–
COc1cc2c(cc1O)[C@H](Cc1ccc(Oc3cc(C[C@@H]4NCCc5cc(OC)c(O)cc54)ccc3O)cc1)NCC2,"inconclusive: 39.8 µM [inhibitor, single point]",–
Cc1nn(C)cc1/C=N/NC(=S)Nc1ccccc1,"inconclusive: 39.8 µM [inhibitor, single point]",–
O=C1CCc2nc3ccccc3c(=O)n2N1,–,inactive: -22.5%
CCOC(=O)COc1ccc2c(C#N)c3ccccn3c2c1,–,inactive: 5.14%
COc1ccccc1-c1cc(C(F)(F)F)c(C#N)c(=O)[nH]1,"inconclusive: 28.2 µM [inhibitor, partial curve]",–
C=CC(C)(C)c1[nH]cnc1/C=C1\NC(=O)C(C(C)C)NC1=O (stereo unspecified),"inconclusive: 39.8 µM [inhibitor, single point]",–
C=CCc1cccc(/C=N/NC(=O)CCC(=O)Nc2ccc(F)cc2)c1O,–,inactive: 4.42%
Cc1nn(-c2ccccn2)c2c1-c1nc(N)ncc1CC2,"inconclusive: 28.2 µM [inhibitor, partial curve]",–
